{"source": "PubChem BioAssay AID2546", "about": "(National Center for Advancing Translational Sciences (NCATS), 2010)", "note": "Out of some 310,000 compounds screened, about 11,000 (3.5%) were called active. The shares of active, inactive and inconclusive entries below differ from those in the screen. Calls come from the whole dose curve; as a rule, active = well fitted inhibition curve with a large enough effect; inconclusive = small, poorly fitted or top-dose-only effect, or effect the other way; inactive = flat fitted curve, though single readings scatter. No potency is given beside an inconclusive call; the fits are too rough. % is set by controls: 0 for no effect and ±100 for the full control effect; potency is the fitted concentration of half-maximal effect; tags give direction and shape of the fitted curve."}
{"experiment": "VP16 counterscreen qHTS for inhibitors of ROR gamma transcriptional activity;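 note: Gal4-VP16 expression switched on by copper sulfate through the metallothionein promoter; nearly all actives have a fitted effect of over 50% in size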", "settings": "Drosophila S2 Gal4-VP16 UAS-luciferase, luminescence, 20 h; activity, negative = inhibition: at 53.6 µM (top of the series)"}
{"smiles": "Fc1ccc(Nc2nnc(C(F)(F)F)s2)cc1Cl", "Potency": "inconclusive [inhibitor, single point]"}
{"smiles": "COc1ccc(C(=O)N/C(=C\\c2cc(OC)c(OC)cc2[N+](=O)[O-])C(=O)NCCO)cc1", "Potency": "inactive"}
{"smiles": "Cc1cc(C)cc(NC(=S)NC2CC3CCCC(C2)N3C2CC2)c1", "note": "(stereo unspecified)", "Potency": "inconclusive [inhibitor, partial curve]"}
{"smiles": "Cc1nc2ccccc2cc1C(=O)Nc1ccccc1Cl", "Potency": "inconclusive [inhibitor, single point]"}
{"smiles": "COc1ccc(C(=O)CNc2ccc3ccccc3c2)cc1", "Potency": "inconclusive [inhibitor, single point]"}
{"smiles": "CCCCC(=O)N1C/C=C\\C(c2ccc(OC)cc2)N(Cc2ccc(F)cc2)C(=O)[C@H]1Cc1ccccc1", "note": "(stereo partly specified)", "Potency": "inconclusive [inhibitor, single point]"}
{"smiles": "CCn1c(C(C)NC(=O)c2cccc(C)c2)nc2ccccc21", "note": "(stereo unspecified)", "Potency": "inconclusive [inhibitor, single point]"}
{"smiles": "CCOc1ccc(/C=N/Nc2nc(N3CCCC3)nc(N3CCCC3)n2)cc1OC", "Potency": "inconclusive [inhibitor, single point]"}
{"smiles": "COc1cccc(CC(=O)Nc2nc(C)cs2)c1", "Potency": "inconclusive [activator, full curve, poor fit]"}
{"smiles": "COCCCn1c2nc3ccccc3nc2c2c(=O)n(Cc3ccccc3Cl)cnc21", "Potency": "inactive"}
{"smiles": "O=C(COC(=O)c1cccc2ccccc12)NCCCc1ccccc1", "Potency": "inactive"}
{"smiles": "Cc1cccc(-c2nnc3n2N=C(c2ccccc2Br)CS3)c1", "Potency": "inconclusive [inhibitor, single point]"}
{"smiles": "COc1ccc(OCCC(=O)OCC(=O)c2ccc[nH]2)cc1", "Potency": "inactive"}
{"smiles": "COc1cc(/C=C2\\SC(=S)N(NC(=O)c3ccc(O)cc3)C2=O)ccc1O", "Potency": "inconclusive [inhibitor, partial curve]"}
{"smiles": "CCCN1CNC(=S)N(c2ccc(C)cc2C)C1", "Potency": "inconclusive [inhibitor, single point]"}
{"smiles": "N=c1nc(N)nc2n1NC(c1ccc(F)cc1)=CS2", "Potency": "inconclusive [activator, single point]"}
{"smiles": "CCOc1ccc(S(=O)(=O)Oc2ccc3ccccc3c2)cc1", "Potency": "inconclusive [inhibitor, single point]"}
{"smiles": "COc1ccc(C2=NN(C(C)=O)C(c3ccccc3)C2)cc1", "note": "(stereo unspecified)", "Potency": "inconclusive [activator, single point]"}
{"smiles": "N/C(COc1ccc(Cl)cc1)=N\\NS(=O)(=O)c1ccccc1", "Potency": "inconclusive [inhibitor, single point]"}
{"smiles": "Cc1ccc(N2C(=O)CSC2c2cccnc2)c(Cl)c1", "note": "(stereo unspecified)", "Potency": "inconclusive [inhibitor, single point]"}
{"smiles": "C=CCn1c(COc2ccccc2)nnc1SC(C)C(=O)N/N=C/c1cc(Cl)ccc1O", "note": "(stereo unspecified)", "Potency": "inconclusive [inhibitor, single point]"}
{"smiles": "Cc1nc(-c2ccc(NC(=O)C3CC3)cc2)cs1", "Potency": "inconclusive [inhibitor, single point]"}
{"smiles": "O=C(Nc1ccc(Cc2ccncc2)cc1)c1ccc(N2CCOCC2)c([N+](=O)[O-])c1", "Potency": "inactive"}
{"smiles": "CCN1CC(CN(C)Cc2nc(-c3ccc(C(F)(F)F)cc3)no2)CC1=O", "note": "(stereo unspecified)", "Potency": "inconclusive [inhibitor, single point]"}
{"smiles": "COc1ccc(CC(=O)OCN2C(=O)c3ccccc3C2=O)cc1OC", "Potency": "inactive"}
{"smiles": "CCc1ccc2oc(-c3ccc(OC)cc3)cc(=Nc3c(C)n(C)n(-c4ccccc4)c3=O)c2c1", "Potency": "inconclusive [inhibitor, single point]"}
{"smiles": "Cc1sc(NC(=S)NC(=O)c2ccc(C(C)(C)C)cc2)c(C#N)c1C", "Potency": "active: 11.2 µM"}
{"smiles": "CN(C)c1ccc(/C=C2\\N=C(C(C)(C)C)OC2=O)cc1", "Potency": "inconclusive [inhibitor, single point]"}
{"smiles": "CCOc1ccc2c(c1)c1nnc(SCC(=O)N3CCCCC3C)nc1n2C", "note": "(stereo unspecified)", "Potency": "inactive"}
{"smiles": "CCCc1cc2c(=O)c(-c3ccc4c(c3)OCCO4)coc2cc1OC(=O)c1ccco1", "Potency": "inconclusive [inhibitor, single point]"}
{"smiles": "COc1ccc2sc(N(CCN(C)C)C(=O)c3ccc4ccccc4c3)nc2c1", "Potency": "inconclusive [inhibitor, single point]"}
{"smiles": "CCC(C)N1C(=O)S/C(=C/c2ccc(N3CCOCC3)cc2C)C1=O", "note": "(stereo unspecified)", "Potency": "inactive"}
{"smiles": "O=[N+]([O-])c1cccc(S(=O)(=O)Nc2ccc(Cc3ccncc3)cc2)c1", "Potency": "inconclusive [inhibitor, single point]"}
{"smiles": "Cc1ccc(C(=O)NC(=S)Nc2ccc(NC(=O)c3cccc(Cl)c3)cc2)cc1", "Potency": "active: 10 µM"}
{"smiles": "O=C1c2cccc3c(N4CCCCC4)ccc(c23)C(=O)N1c1ccccc1O", "Potency": "inconclusive [inhibitor, single point]"}
{"smiles": "Cc1nc(SCCC(=O)O)c2cc(-c3ccccc3)sc2n1", "Potency": "active: 0.501 µM"}
{"smiles": "O=C(CN1CCN(c2ncccn2)CC1)Nc1ccccc1-n1cccc1", "Potency": "inconclusive [inhibitor, single point]"}
{"smiles": "Cc1ccc2nc(-c3cccnc3)cc(C(=O)Nc3ccccc3[N+](=O)[O-])c2c1", "Potency": "inconclusive [inhibitor, single point]"}
{"smiles": "CC(C)(C)c1cc(OS(C)(=O)=O)ccc1O", "Potency": "inconclusive [inhibitor, single point]"}
{"smiles": "Cc1ccccc1C(=O)Nc1cccc(NC(=S)NC(=O)c2cccs2)c1", "Potency": "inconclusive [inhibitor, single point]"}
{"smiles": "O=S(=O)(Nc1nc2ccccc2nc1NCc1ccco1)c1ccc(Cl)cc1", "Potency": "active: 11.2 µM"}
{"smiles": "O=C1CCN(CCc2ccccc2)CCN1[C@H](CSc1ccc(Br)cc1)c1ccccc1", "Potency": "inactive"}
{"smiles": "COC(=O)c1c(NC(=O)C(Cl)Cl)sc2c1C(C(=O)OC)CC2", "note": "(stereo unspecified)", "Potency": "active: 7.94 µM"}
{"smiles": "Cc1[nH][nH]c(=O)c1C(c1ccc([N+](=O)[O-])cc1)c1c(C)[nH][nH]c1=O", "Potency": "inconclusive [inhibitor, single point]"}
{"smiles": "COc1ccc(NS(=O)(=O)c2csc(C(=O)Nc3ccccc3)c2)cc1", "Potency": "active: 20 µM"}
{"smiles": "COc1cccc(/C=N/NC(=O)c2[nH]c(C)c(C(=O)N/N=C/c3cccc(OC)c3O)c2C)c1O", "Potency": "inconclusive [inhibitor, single point]"}
{"smiles": "COc1ccc2oc(=O)c(C(=O)N3CCN(c4ccccc4C)CC3)cc2c1", "Potency": "inconclusive [inhibitor, single point]"}
{"smiles": "CC(C)[C@@H](OCc1ccccc1)[C@H](C)/C=N\\OC[C@@H](O)COCc1ccco1", "activity, negative = inhibition": "inactive: 0.411% [at 10 µM]"}
{"smiles": "NC(=S)Nc1cc(Cl)ccc1Cl", "Potency": "inconclusive [inhibitor, single point]"}
{"smiles": "CC12CCC(C(=O)N(CSC(=S)N/N=C\\c3ccccc3O)C1=O)C2(C)C", "note": "(stereo unspecified)", "Potency": "inconclusive [inhibitor, single point]"}
{"smiles": "Cc1cccc(Nc2nc(N)c([N+](=O)[O-])c(N3CC(C)CC(C)C3)n2)c1", "note": "(stereo unspecified)", "Potency": "inconclusive [inhibitor, single point]"}
{"smiles": "O=C(Nc1ccc(N2CCCCC2)c(Cl)c1)c1ncn[nH]1", "Potency": "inconclusive [inhibitor, partial curve]"}
{"smiles": "Cc1ccc(C)c(NS(=O)(=O)c2ccc(NC(=O)c3ccco3)cc2)c1", "Potency": "inconclusive [inhibitor, single point]"}
{"smiles": "Cc1nn(CC2CCCCC2)c(N)c1-c1ccccc1", "Potency": "active: 11.2 µM"}
{"smiles": "COc1ccc(C(=O)n2nc(-c3ccc(Cl)cc3)nc2N)cc1OC", "Potency": "inconclusive [inhibitor, single point]"}
{"smiles": "C=CCn1c(-c2cccc(OC)c2OC)n[nH]c1=S", "Potency": "inconclusive [inhibitor, single point]"}
{"smiles": "COc1ccccc1/C=N/NC(=O)c1ccc(=O)n(C)c1", "Potency": "inactive"}
{"smiles": "Oc1[nH]c(N=C2N=c3ccccc3=N2)c2ccccc12", "Potency": "active: 2.51 µM"}
{"smiles": "CC1CCCN(c2ccc(C(=O)NCC3CCCO3)cn2)C1", "note": "(stereo unspecified)", "Potency": "inconclusive [activator, full curve, poor fit]"}
{"smiles": "O=C(c1ccco1)N1CCN(S(=O)(=O)c2ccc(C3CCCCC3)cc2)CC1", "Potency": "inconclusive [inhibitor, single point]"}
{"smiles": "CCc1c(C)nc2ncnn2c1Nc1ccc(C)c(C)c1", "Potency": "inactive"}
{"smiles": "CSCCC=O", "Potency": "inactive"}
{"smiles": "COc1ccc(CC2(CO)CCN(Cc3cnn(-c4ccccc4OC)c3)CC2)cc1", "Potency": "inactive"}
{"smiles": "N=c1c2c(-c3ccccc3)c(-c3ccccc3)n(Cc3ccco3)c2ncn1Cc1ccccc1", "Potency": "inconclusive [inhibitor, single point]"}
{"smiles": "CCOc1ccc(C(CCc2ccccc2)NC(=O)c2ccccc2OC)cc1OCC", "note": "(stereo unspecified)", "Potency": "inconclusive [inhibitor, single point]"}
{"smiles": "COc1ccc(C2=NN(C(=O)c3ccccc3)C(c3ccc(OC)c(OC)c3)C2)c(O)c1", "note": "(stereo unspecified)", "Potency": "inactive"}
{"smiles": "COCCn1c(SCC(=O)Nc2ccc(NC(=O)c3ccco3)c(OC)c2)nc2ccccc2c1=O", "Potency": "inactive"}
{"smiles": "Cc1ccccc1N1CC(O)(c2ccccc2)[N+]2=C1SCC2", "note": "(stereo unspecified)", "Potency": "inconclusive [inhibitor, single point]"}
{"smiles": "CC1CC(NC(=O)Cc2ccc(Br)cc2)CC(C)(C)C1", "note": "(stereo unspecified)", "Potency": "inactive"}
{"smiles": "O=C(CN1C(=O)C(c2ccccc2)Oc2cccnc21)NCc1ccccc1F", "note": "(stereo unspecified)", "Potency": "inactive"}
{"smiles": "Cc1ccc(-c2nnc(N3CCCCC3)c3ccccc23)cc1S(=O)(=O)NCC1CCCO1", "note": "(stereo unspecified)", "Potency": "inconclusive [inhibitor, partial curve]"}
